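Protocol summary: plate cells (96-well), add compound at 5 concentrations, incubate 48 h, interpolate endpoints linearly. Here, GI50 denotes the concentration required for 50% inhibition of growth.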 Calls of active or inactive are those of the source. Cut-off read from the data, not from the text of the source: active = GI50 up to about 1.1 µM and inactive = higher.
These compounds were tested on NCI-H322M (assay: NCI anticancer screen, dose series, 48 h).
For Cn1c(-c2ccc[se]2)ccc1-c1ccc(CO)[se]1, the GI50 was inactive: 39.7 µM. For Cc1c2c(n(CCc3ccc(Cl)cc3)c1C)NC(c1ccccc1)C(C#N)S2(=O)=O (configuration not stated), the GI50 was inactive: > 93.5 µM. For O=C(O/N=C1/CCCC/C1=C\c1ccccc1)c1ccc(Cl)c(Cl)c1, the GI50 was inactive: 25.9 µM. With Cc1cc(N(CCC#N)CCC#N)ccc1/N=N/c1cccc(Cl)c1 the GI50 was inactive: > 100 µM. O=C(NC(=O)c1ccccc1[N+](=O)[O-])Nc1ccc(Oc2ncc(Cl)cn2)c(C(F)(F)F)c1 was tested, and the GI50 was active: 0.0261 µM. COc1ccc2c(c1)c1ccc3c(c1n2C)C(=O)C=CC3=O was tested, and the GI50 was inactive: 22.9 µM. For O=C(/C=C/c1ccc(Cl)c(Cl)c1)c1ccc(F)cc1, the GI50 was inactive: 47 µM. For CN(C)CC(CC1=C(CC(CN(C)C)N(C)C)CCC1)N(C)C (configuration not stated), the GI50 was inactive: > 100 µM. With O=C(O)CCCCCO the GI50 was inactive: > 100 µM. For [N-]=[N+]=NC1CC(n2cc(COCC(F)(F)F)c(=O)[nH]c2=O)OC1CO (configuration not stated), the GI50 was inactive: > 100 µM. With CC1=C2C(=O)[C@H]3[C@@H](CC=C4C[C@@H](O)CC[C@@]43C)[C@@H]2CC[C@]12O[C@@H]1C[C@H](C)CN[C@H]1[C@H]2C [JERVINE] the GI50 was inactive: > 43.4 µM. In the case of O=C(CC(=O)c1cccc2ccccc12)C(=O)Nc1ccc(Cl)cc1, the GI50 is reported as inactive: > 100 µM. O=[N+]([O-])c1ccc2c(c1)C1=NN(c3ccccc3)C(c3ccccc3Br)C1CCC2 (configuration not stated) was tested, and the GI50 was inactive: 30.5 µM. For COCN1C(=O)[C@@H]2CCCN2C(=O)c2cc(OC)c(Cc3ccccc3)cc21, the GI50 was inactive: > 100 µM. In the case of COC(=O)C1CCC2(C)[C@H](CCC3O[C@]32C)[C@@]1(C)CC(=O)c1ccoc1 (some centres not stated), the GI50 is reported as inactive: 91.2 µM. For O=[N+]([O-])c1ccc2c(c1)C1=C(CO2)Cc2ccccc2O1, the GI50 was inactive: 32.4 µM. With Oc1ccc(O)c(Sc2nnc(CCCCCCCCc3nnc(Sc4cc(O)ccc4O)o3)o2)c1 the GI50 was inactive: > 100 µM. CCCC1C(=O)C(CC)Cc2c(OC)ccc(OC)c21 (configuration not stated) was tested, and the GI50 was inactive: > 100 µM. With CC1/C(=N\O)CC(c2ccccc2)N(C)C1c1ccccc1 (configuration not stated) the GI50 was inactive: > 100 µM. With COc1ccc(C(=O)/C=C/c2ccc(OCC#N)cc2)cc1 the GI50 was inactive: 38.6 µM. In the case of C/C(=N\NS(=O)(=O)c1ccccc1)c1ccc[n+]([O-])n1, the GI50 is reported as inactive: > 100 µM. O=C1C2CCCCC2C(=O)N1n1c(-c2ccccc2)n[nH]c1=O (configuration not stated) was tested, and the GI50 was inactive: > 100 µM. For CC1OC(n2ncc(=O)[nH]c2=O)C=CC1=O (configuration not stated), the GI50 was inactive: > 100 µM. For COc1ccc(/C=C(\Cl)c2ccc(OC)cc2)cc1, the GI50 was inactive: > 100 µM. With C=C1CN(C2=NCCO2)C1 the GI50 was inactive: > 100 µM. For CC(C)N1CCC2(CC1)NNc1ncccc1-n1cccc12, the GI50 was inactive: > 100 µM. In the case of O=S(=O)(/N=C(\NO)Nc1ccc(Cl)cc1)c1ccc(-c2ccccn2)s1, the GI50 is reported as inactive: > 100 µM. For O=[N+]([O-])c1cccc(/N=N/c2c(O)c(S(=O)(=O)O)cc3cc(S(=O)(=O)O)ccc23)c1, the GI50 was inactive: > 100 µM. With Cc1nc(N)c(N2CCN(S(N)(=O)=O)CC2)c(O)n1 the GI50 was inactive: > 100 µM. In the case of CC(=O)C=C1Nc2ccccc2N1, the GI50 is reported as inactive: > 100 µM. COC(=O)CC1NC(=O)C1C(C)(OC)OC (configuration not stated) was tested, and the GI50 was inactive: > 100 µM. In the case of CN(C)S(=O)(=O)n1cnc(CO)c1, the GI50 is reported as inactive: > 100 µM. With CCCCCCCCCCCC[S+](C)C the GI50 was inactive: 12.6 µM. For COc1ccc(NC(=O)CC2S/C(=N\c3ccccc3C)NC2=O)c([N+](=O)[O-])c1 (configuration not stated), the GI50 was inactive: > 100 µM. With CCOC(=O)c1cc(C2CCN(c3ccccc3)C2=O)c(C(=O)/C=C(/C)O)[nH]1 (configuration not stated) the GI50 was inactive: > 100 µM. In the case of CC(=O)N1C/C(=C\c2ccc(N(C)C)cc2)C(=O)/C(=C/c2ccc(N(C)C)cc2)C1, the GI50 is reported as inactive: > 100 µM. For O=C1NC(=O)C(CCO)(c2ccccc2)C(=O)N1, the GI50 was inactive: > 100 µM. In the case of C=CCc1cccc(C(=O)/C=C(O)/C=C/c2ccccc2Cl)c1O, the GI50 is reported as inactive: 10.7 µM. With Clc1cccc(N/N=N/c2ccc(-c3nc4ccccc4s3)cc2)c1 the GI50 was inactive: > 100 µM. In the case of CC(C)C(=O)CC(c1ccc(Br)cc1)N1N=C(C(C)C)CC1c1ccc(Br)cc1 (configuration not stated), the GI50 is reported as inactive: > 100 µM. For CC(C)Cc1cc2c(cc1O)CCC1C2CC[C@@]2(C)C1CC[C@@H]2O (some centres not stated), the GI50 was inactive: 12.3 µM. With Oc1ccc(O)c(CNc2ccccc2)c1 the GI50 was inactive: 35.6 µM. For O=C1c2ccccc2-c2c1c(-c1ccccc1)c1n2C2(C(=O)c3ccccc3C2=O)C2C(=O)N(c3ccccc3)C(=O)C12 (configuration not stated), the GI50 was inactive: 16.1 µM. With O=NN1CCNC1Cc1ccccc1 (configuration not stated) the GI50 was inactive: > 100 µM. In the case of Nc1cc(CO)cc(Nc2nc3ccc(Cl)cc3c3[nH]c4ccccc4c23)c1, the GI50 is reported as inactive: 6.3 µM. COc1ccc(/C=C/C(=O)c2sc(-n3nc(-c4ccccc4)cc3-c3ccccc3)nc2C)cc1OC was tested, and the GI50 was inactive: 50.1 µM. In the case of N#C[BH2-][n+]1cn(C2CC(O)C(COP(=O)(O)OC3CC(n4c[n+]([BH2-]C#N)c5c(=O)[nH]c(N)nc54)OC3CO)O2)c2nc(N)[nH]c(=O)c21 (configuration not stated), the GI50 is reported as inactive: > 100 µM. In the case of CCc1cccc(C)c1NC(=O)CCc1nnc2s/c(=C\c3cccc4ccccc34)c(=O)n12, the GI50 is reported as inactive: > 100 µM. OCc1ccc2c(c1)CC1(C2)Cc2cc3c(cc2C1)CCC3 was tested, and the GI50 was inactive: 6.75 µM. Cc1c(CCN=P(c2ccccc2)(c2ccccc2)c2ccccc2)c(=O)n2c([nH]c3ccccc32)c1C#N was tested, and the GI50 was inactive: > 10 µM. CC1=CC(=O)/C(=C/Nc2nc(-c3ccc([N+](=O)[O-])cc3)cs2)C(=O)O1 was tested, and the GI50 was inactive: > 100 µM. With CN(C)CCNc1nc2ccccc2c2c1C(=O)c1ccccc1-2 the GI50 was active: 0.385 µM. With CN(C)CCS/C(=N\c1ccccc1)n1cccc1 the GI50 was inactive: > 100 µM. CCC(C)N1CN(c2ccccc2)C2(CCN(CCCC3(c4ccc(F)cc4)OCCO3)CC2)C1=O (configuration not stated) was tested, and the GI50 was inactive: 18.4 µM. In the case of CCCCCCCCCCCCCCC(C(=O)[O-])[n+]1ccccc1 (configuration not stated), the GI50 is reported as inactive: > 100 µM. For C=CCC1(C)CCCCC1(O)C[S+]([O-])c1ccccc1 (configuration not stated), the GI50 was inactive: > 100 µM. With COc1ccc(/C=C2\N=C(c3ccccc3)N(Nc3nnc(NN4C(=O)/C(=C/c5ccc(OC)cc5)N=C4c4ccccc4)c4ccccc34)C2=O)cc1 the GI50 was inactive: 41.3 µM. In the case of CC(=O)c1ccccc1NS(=O)(=O)c1ccc2nc(C)n(NS(=O)(=O)c3ccccc3C(C)=O)c(=O)c2c1, the GI50 is reported as inactive: > 100 µM. c1cnc2c(c1)-n1cccc1C1(CCSCC1)NN2 was tested, and the GI50 was inactive: > 100 µM. With Cc1ccc(C(=O)Cn2c(C(=O)/C=C/c3cccs3)nc3ccccc32)cc1 the GI50 was inactive: 38.6 µM. In the case of [O-]c1c2c(nn1-c1ccc(F)cc1)c1ccccc1c[n+]2Cc1ccccc1, the GI50 is reported as inactive: 23.3 µM. With COc1ccccc1Cn1c2c(c3cc(O)ccc31)C(=O)c1ccccc1C2=O the GI50 was inactive: > 100 µM. For Cc1ccc(NC(=O)CC/C(CC(=O)c2ccc(F)cc2)=N\NC(=O)C(=O)NN)cc1C, the GI50 was inactive: > 100 µM. In the case of COc1cc2c(cc1OC)C(=O)/C(=C/c1cc(C)cc(C)c1)C2, the GI50 is reported as active: 0.0869 µM. For COc1cccc2c1C(=O)c1c(O)c3c(c(O)c1C2=O)C[C@H](O)C[C@@H]3OC1CC(N)C(O)C(C)O1 (some centres not stated), the GI50 was inactive: 2.48 µM. With CCOC(=O)c1c(-c2ccc(O)c(OC)c2)c(C#N)c(=S)n(C2OC(CO)C(O)C(O)C2O)c1-c1ccccc1 (configuration not stated) the GI50 was inactive: > 100 µM. N#C[C@@]12CCCC(=O)[C@@H]1[C@H]1CCC[C@H]12 was tested, and the GI50 was inactive: 17.1 µM. Nc1nc2[nH]c(=O)cnc2c(=O)[nH]1 [ISOXANTHOPTERIN] was tested, and the GI50 was inactive: > 125 µM. In the case of Nc1nc(-c2cccc([N+](=O)[O-])c2)cc(-c2cc(-c3cccc([N+](=O)[O-])c3)nc(N)n2)n1, the GI50 is reported as inactive: > 100 µM. In the case of N#Cc1c(N)n(C2OC(CO)C(O)C2O)c2ncnc(N)c12 (configuration not stated), the GI50 is reported as active: 0.0294 µM. With COc1ccc(N2C(=O)C3c4[nH]c5ccccc5c4C4CCCCCCC4C3C2=O)cc1 (configuration not stated) the GI50 was inactive: 19.8 µM. In the case of CC1OC(OC2C(OC3CCC4(C)C(CCC5(C)C4CC=C4C6CC(C)(C)CCC6(C(=O)O)CCC45C)C3(C)CO)OCC(O)C2O)C(O)C(O)C1O (configuration not stated), the GI50 is reported as inactive: 18.7 µM. In the case of COc1cccc(C=C(C#N)C#N)c1OC, the GI50 is reported as inactive: > 100 µM. c1ccc2c(c1)CCc1c(-c3n[nH]c4c3CCc3ccccc3-4)n[nH]c1-2 was tested, and the GI50 was inactive: > 100 µM. For CC(=O)O[C@@H]1[C@H](C(C)C)[C@@H](OC(C)=O)C/C(C)=C/CC[C@]2(C)O[C@@H]12, the GI50 was inactive: > 100 µM. In the case of C[S+]([O-])c1cc(=O)c2ccccc2s1 (configuration not stated), the GI50 is reported as inactive: 20.7 µM. For N#CC1(C#N)C2C=CC(c3coc4cccc2c34)C1(C#N)C#N (configuration not stated), the GI50 was inactive: 17.8 µM. With Cc1cnccc1/N=N/c1ccc(N(C)C)cc1 the GI50 was inactive: 31.8 µM. For CC(=O)c1cc([N+](=O)[O-])ccc1OCC(=O)O, the GI50 was inactive: > 100 µM. CC(=O)OCCOCNC(=S)N/N=C(\C)c1ccco1 was tested, and the GI50 was inactive: > 100 µM. In the case of CC1C(O)Oc2cc3c(cc2C1c1ccccc1O)OCO3 (configuration not stated), the GI50 is reported as inactive: 29 µM. With CCCc1nc(Cl)c(Cl)c(Cl)n1 the GI50 was inactive: 2.64 µM. With COc1ccc(C(CC(C)=O)c2c(O)c3ccccc3oc2=O)cc1OC (configuration not stated) the GI50 was inactive: > 100 µM. With CCOC(=O)C(NC(=O)N(C1=NCC(C)S1)C1CCCCC1)(OC)C(F)(F)F (configuration not stated) the GI50 was inactive: 37.4 µM. With CCNC(=S)NNC(=O)CSc1nc2ccc(I)cc2c(=O)n1Cc1ccccc1 the GI50 was inactive: 33 µM. In the case of Cc1ccc2nc3ccccc3c(C3C4C(=O)N(c5ccc(F)cc5)C(=O)C4ON3C(C(N)=O)c3ccccc3)c2c1 (configuration not stated), the GI50 is reported as inactive: > 100 µM. In the case of Cc1ccc(S(=O)(=O)C2=C([Si](C)(C)C)C3CC2[C@@H]2C4C=CC(CC4)[C@H]32)cc1 (some centres not stated), the GI50 is reported as inactive: > 100 µM. N[C@H]1CCc2c1nc1c(c2-c2ccccc2)CC[C@@H]1N was tested, and the GI50 was inactive: > 100 µM. With CC1=C(CC2C(=O)N(c3ccccc3)S(=O)(=O)NC2C)C(=O)N(c2ccccc2)S(=O)(=O)N1C (configuration not stated) the GI50 was inactive: > 100 µM. With O=C1C2c3[nH]c4ccccc4c3C3CCCC3C2C(=O)N1c1ccccc1 (configuration not stated) the GI50 was inactive: > 100 µM. In the case of O=[N+]([O-])C(=C(N1CCOCC1)N1CCOCC1)/C(Cl)=C(\Cl)Br, the GI50 is reported as inactive: > 100 µM. For CSC(=O)c1sc(SC)[n+](-c2ccccc2)c1O, the GI50 was inactive: 17.1 µM.

Reference: ChEMBL document CHEMBL1201862, “PubChem BioAssay data set” (2004)
